According to PubChem BioAssay AID493208 (National Center for Advancing Translational Sciences (NCATS), 2011):
The campaign covered roughly 44,000 compounds. About 340 (0.77%) were called active. Not shown: some 5% with an inconclusive outcome. Calls come from the whole dose curve; as a rule, active = well fitted inhibition curve with a large enough effect; inconclusive = small, poorly fitted or top-dose-only effect; inactive = flat fitted curve, though single readings scatter. The list shows a part of the results.

Assay: Acumen qHTS Assay for Inhibitors of the mTORC1 Signaling Pathway in MEF (Tsc2-/-, p53-/-) Cells: Sytravon; note: nearly all actives have a fitted effect of over 50% in size;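 for activity change, negative = inhibition: plate controls were DMSO for no effect and rapamycin for full effect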
Settings: phospho-rpS6 immunofluorescence/PI, 24 h; series mostly up to 38.3 µM; activity change, negative = inhibition: at the top concentration
Outline: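 Readout is phospho-S6 Alexa 488 signal normalized to PI per well, reported as % active cells with thresholds set from rapamycin (7.5 nM) and DMSO controls. Cells: Tsc2-/-, p53-/- MEFs, 24 hrs compound at 37 C; PI cell number serves as viability.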
Potency is the fitted concentration of half-maximal effect.

Compound | activity change, negative = inhibition | Potency
COc1ccc(C(=O)N2c3ccc(C)cc3C(C)(c3ccccc3)CC2(C)C)cc1 (configuration not stated) | inactive: -6.87% | –
COc1cc(Cl)c(C)cc1NC(=O)Cn1ncc2c3ccccc3n(Cc3ccccc3)c2c1=O | inactive: -2.8% | –
CCc1ccc(CNC(=O)c2c(C)oc3ncn(CC(C)C)c(=O)c23)cc1 | inactive: 0.484% | –
COc1ccc(CNC(=O)CCCn2c(=O)c3cccn3c3cccnc32)cc1 | inactive: 0.835% | –
CCN(CC)CCCNC(=O)CN1N=C(c2ccc(OC)cc2)CCC1=O | inactive: 0.0334% | –
CCc1ccc(S(=O)(=O)c2c(C(=O)c3ccccc3)cnc3ccc(CC)cc23)cc1 | inactive: -11.6% | –
O=S(=O)(c1cccc(F)c1)N1CCC(Oc2ccc(-n3cnnn3)cc2)CC1 | inactive: -3.72% | –
CCOCCCNC(=O)c1c(NC(=O)Cc2coc3ccc(C)cc23)sc2c1CCC2 | inactive: -3.45% | –
CC(C)c1ccc(OCC(O)CN2CCN(c3ccc(F)cc3)CC2)cc1 (configuration not stated) | inactive: 15.7% | –
CCCCNS(=O)(=O)c1ccc2nc(-c3cccnc3)cc(C(=O)NCCOC)c2c1 | inactive: 1.05% | –
Cc1ccccc1NC(=O)c1ccc(Cl)c(S(=O)(=O)N2CCCCCC2)c1 | inactive: 9.41% | –
CCC1CCCCN1C(=O)Cn1c(=O)cc(C(F)(F)F)c2c(C)nn(C)c21 (configuration not stated) | inactive: -8.19% | –
COc1ccc(NC(=O)CSc2nccn2Cc2ccco2)c(OC)c1 | inactive: -4.47% | –
O=C1c2[nH]nc(-c3ccccc3O)c2C(c2ccc(F)cc2)N1CCO (configuration not stated) | inactive: 0.84% | –
COc1ccc(OC)c(NC(=O)Cc2c(C(=O)O)n(C)c3ccc(C)cc23)c1 | inactive: 6.56% | –
CCOC(=O)c1c(C)sc(-c2c(-c3ccc(OC)c(F)c3)[nH]c3[nH]c(=O)[nH]c(=O)c23)c1O | inactive: -2.62% | –
CC1=C(C(=O)Nc2ccc(Cl)cc2)C(c2ccc(C(F)(F)F)cc2)n2nnnc2N1 (configuration not stated) | inactive: -0.128% | –
COc1ccc(-c2nc(SCC(=O)N3CCCCC3C)n[nH]2)cc1 (configuration not stated) | inactive: 0% | –
COC(=O)c1cnn(-c2ccc(C(=O)Nc3cc(OC)c(OC)c(OC)c3)cc2)c1N | inactive: -1.16% | –
CCc1ccccc1NC(=O)CSc1ncc(S(=O)(=O)c2ccc(C(C)C)cc2)c(N)n1 | inactive: 0.26% | –
CCc1ccc(-n2c(=O)c3c(C)c(C(=O)N(C)C)sc3n(Cc3ccccc3C#N)c2=O)cc1 | inactive: -0.121% | –
Cc1ccc(CN(Cc2ccco2)C(=O)c2ccc(Cl)cc2)o1 | inactive: -12.6% | –
CCc1cccc(C)c1Nc1c(-c2cccc(O)c2)nc2nc(C)cc(C)n12 | inactive: -20.4% | –
Cc1ccc(NC(=O)C2CCCN2S(=O)(=O)c2ccc3c(c2)CCCC(=O)N3)cc1Cl (configuration not stated) | inactive: 0% | –
O=C(CSc1ccc2nc(-c3ccccc3)cn2n1)Nc1cccc(F)c1 | inactive: -0.371% | –

Compound | activity change, negative = inhibition | Potency
COc1ccc(NC(=O)c2c(NC(=O)Cc3ccccc3)sc3c2CCCC3)cc1 | inactive: -7.12% | –
COc1ccc(NC(=O)Cn2c(=O)n(Cc3ccc(C(=O)NCc4ccccc4Cl)cc3)c(=O)c3ccccc32)cc1 | inactive: -13% | –
COc1ccc(Cn2nnc3c(=O)[nH]c(C4CCN(C(=O)c5ccc(C)cc5)CC4)nc32)cc1OC | inactive: -9.77% | –
CCN(CC)CCCNC(=O)CN1N=C(c2ccccc2)CCC1=O | inactive: 16.5% | –
Cc1cc(F)ccc1NC(=O)Cn1c(=O)ccc2cc(S(=O)(=O)N3CCC(C)CC3)ccc21 | inactive: 0.0361% | –
Cc1nn(CC(=O)N2CCN(c3cccc(C(F)(F)F)c3)CC2)c(=O)c2cccn12 | inactive: 1.27% | –
Cc1nn(C)c2c1c(C(F)(F)F)cc(=O)n2C(C)C(=O)NCc1ccccc1Cl (configuration not stated) | inactive: -0.713% | –
Cc1ccc(NC(=O)Cn2nnc(C(=O)NCc3cccs3)c2N)cc1Cl | inactive: 6.47% | –
COC(=O)c1sccc1S(=O)(=O)N(CC(=O)NCc1ccc(F)cc1)c1ccc(Cl)cc1 | inactive: -2.72% | –
COc1ccc(CNC(=O)c2ccc(CNS(=O)(=O)c3ccc(F)cc3)cc2)cc1 | inactive: -17.7% | –
Cc1cc(C)cc(NC(=O)Cn2c(C(F)(F)F)nc3ccccc32)c1 | inactive: -3.89% | –
Cc1oc(-c2cccc(Cl)c2)nc1Cn1c(SCc2ccccc2F)nc2ccncc21 | inactive: -2.43% | –
Cc1ccccc1NC(=O)CSc1nnc(-c2cccs2)o1 | inactive: -1.12% | –
COc1ccc(CCNC(=O)c2ccc3c(c2)N(Cc2ccccc2C)C(=O)c2ccccc2S3)cc1OC | inactive: -15.6% | –
COc1ccccc1NC(=O)CSC1=Nc2ccccc2C2=NC(CC(=O)NCc3cccs3)C(=O)N12 (configuration not stated) | inactive: -4.43% | –
N#Cc1ccccc1NC(=O)CSc1nnc(N)s1 | inactive: -3.4% | –
COc1ccc(CNC(=O)c2cnc(N3CCOCC3)c3ccccc23)cc1 | inactive: -4.46% | –
Fc1ccc(-c2cn3cc(Cc4ccccc4)sc3n2)cc1 | inactive: -8.24% | –
CCCN(CCC)C(=O)Cn1c(=O)n(-c2ccc(Cl)cc2)c(=O)c2c3c(sc21)CCCC3 | inactive: 2.6% | –
CCc1ccc2oc(-c3cc(NC(=O)c4cc([N+](=O)[O-])ccc4N4CCOCC4)ccc3Cl)nc2c1 | inactive: -7.65% | –
Cc1ccc(Cl)cc1N1CCN(C(=O)c2cc3c(-c4ccccc4F)nn(C)c3s2)CC1 | inactive: 0.0743% | –
COc1ccc(-n2ncc(C(=O)N3CCOCC3)c2C2CCN(C(=O)OC(C)(C)C)CC2)cc1 | inactive: 6.03% | –
Cn1c(=O)c2sccc2n2c(CCCC(=O)NCc3ccccc3)nnc12 | inactive: -4.6% | –
Cc1cccc(NC(=O)CCc2c(C)nc3c(c(C)nn3C(C)(C)C)c2C)c1C | inactive: -4.02% | –
O=C1COc2ccc(-c3cc(-c4ccccc4)c4c(n3)-c3cc(Cl)ccc3OC4)cc2N1 | inactive: 4.08% | –

Compound | activity change, negative = inhibition | Potency
CCN(C(=O)c1cn(CC)c(=O)c2cc(OC)c(OC)cc12)c1ccc(C)c(C)c1 | inactive: -8.45% | –
CC1CCc2c(sc3nnn(CC(=O)Nc4ccc(Cl)cc4)c(=O)c23)C1 (configuration not stated) | inactive: -1.11% | –
Cc1ccc(N2CCN(S(=O)(=O)c3ccc4[nH]c5c(c4c3)CCCCC5)CC2)c(C)c1 | inactive: -3.79% | –
O=C(Nc1cccc(F)c1F)C1CCN(c2ncccn2)CC1 | inactive: 2.35% | –
COc1cccc(-n2nnc(-c3nc(-c4ccccc4F)no3)c2C)c1 | inactive: -3.26% | –
O=C(Nc1ccc(F)cc1)N1CCN(C(=O)c2nsc3ccccc23)CC1 | inactive: -0.689% | –
COC(=O)c1cc2occc2n1CC(=O)Nc1ccc(C(C)C)cc1 | inactive: -4.13% | –
CCSc1nn(CC(=O)Nc2ccc(C(=O)OC)cc2)c(N)c1S(=O)(=O)c1ccc(C)cc1 | inactive: -0.273% | –
CSc1cccc(NC(=O)Cn2ncn3c(cc4ccccc43)c2=O)c1 | inactive: -1.56% | –
COC(=O)c1cc(NC(=O)c2ccc3c(c2)NC(=O)c2ccccc2S3)cc(C(=O)OC)c1 | inactive: 1.45% | –
COc1ccc(-c2nc3c(c(SCC(=O)N4CCCCC4)n2)Cc2c(CO)cnc(C)c2O3)cc1 | inactive: -0.448% | –
Cc1cccc(N2CCN(C(c3ccccc3)c3nnc(-c4ccccc4Cl)o3)CC2)c1C (configuration not stated) | inactive: -3.7% | –
Cn1nnc2c(N3CCN(c4cccc(C(F)(F)F)c4)CC3)ncnc21 | inactive: -0.139% | –
CCOc1ccccc1NC(=O)C(c1ccccc1)N1Cc2ccccc2C1=O (configuration not stated) | inactive: -3.12% | –
Fc1ccccc1N1CCN(c2ncc3c(n2)CCN(Cc2cc(Br)cs2)C3)CC1 | inactive: 12.1% | –
COc1ccc(OC)c(CNC(=O)CN2CC(C)Sc3ccccc32)c1 (configuration not stated) | inactive: -4.17% | –
Cc1cc(OCC(=O)NCC2(N3CCOCC3)CCCCC2)ccc1Cl | inactive: -26.4% | –
CCc1noc(-c2ccc(N3CCCCC3)c([N+](=O)[O-])c2)n1 | inactive: -5.24% | –
CCc1cccc(NC(=O)C(CC(C)C)NS(=O)(=O)c2ccc3c(c2)oc(=O)n3C)c1 (configuration not stated) | inactive: 0.919% | –
CCC(=O)N1CCc2cc(CNC(=O)Nc3cc(Cl)ccc3C(=O)OC)ccc21 | inactive: -6.95% | –
Brc1ccc2nc(-c3ccccc3)c(Nc3ccc4c(c3)OCO4)n2c1 | inactive: 2.72% | –
O=C(Nc1cccc(Cl)c1)C1CCCN1S(=O)(=O)c1cccc2cccnc12 (configuration not stated) | inactive: -7.63% | –
Cn1nnnc1SCCNCc1ccc(OCc2ccc(Cl)cc2)cc1 | inactive: -25.4% | –
COc1ccccc1-c1nnc(SCC(=O)c2ccc(F)cc2)n1-c1ccccc1 | inactive: -15.3% | –
CCc1ccc(CNC(=O)CN2C(=O)CCn3nc(-c4cn(C)c5ccccc45)cc32)cc1 | inactive: -15% | –

Compound | activity change, negative = inhibition | Potency
Cc1cc(Cl)ccc1OCc1cc(=O)n2c3c(sc2n1)CCCC3 | inactive: 1.98% | –
Cc1ccc(CN2C(=O)c3ccccc3Sc3ccc(C(=O)NCCCN4CCOCC4)cc32)cc1 | – | active: 11.7 µM
Cc1oc(-c2cccc(Cl)c2)nc1CN1CCC(C(=O)NCCc2ccc(Cl)cc2)CC1 | inactive: -0.466% | –
COc1cccc(OCC(=O)Nc2nnc3n2CCS3)c1 | inactive: 1.73% | –
CCc1ccc(C2=C(C)C(N3CCC(C(=O)NCCc4ccco4)CC3)=NS2(=O)=O)cc1 | inactive: -6.52% | –
COc1ccc(C(=O)Nc2ccc(N3CCOCC3)c(C(F)(F)F)c2)cc1OC | inactive: -25.8% | –
Cc1cccc(NC(=O)CSc2nc(=O)n(Cc3cccnc3)c3c2CCC3)c1C | inactive: -7.43% | –
COc1ccccc1NC(=O)c1cc(S(=O)(=O)N2CCc3ccccc32)ccc1F | inactive: 8.77% | –
COc1ccc(NC(=O)c2cc3c(=O)n(Cc4cccnc4)ccc3nc2C)cc1Cl | inactive: -16.3% | –
C=Cc1ccc(Cn2c(=O)cc(C)c3c(C)nn(C)c32)cc1 | inactive: -19.3% | –
Cc1cccc(N2CCN(c3c4c(nc5nncn35)CCC4)CC2)c1C | inactive: 1.07% | –
COc1cc(-c2nnc(SCC(=O)Oc3ccccc3Cl)o2)cc(OC)c1OC | inactive: -3.41% | –
O=c1c(N2CCc3ccccc3C2)csc2ccc(Br)cc12 | inactive: 4.76% | –
COc1ccccc1NC(=O)c1cc(C2CC2)nc2c1c(C)nn2-c1ccc(C)cc1 | inactive: 0.898% | –
CC(C)CCN(Cc1ccco1)C(=O)Cn1ncc2c([nH]c3ccccc32)c1=O | inactive: -0.711% | –
COc1ccccc1Cc1nc2ccccc2nc1SCC(=O)N1CCC(C)CC1 | inactive: 0.634% | –
Cc1cccc(C(=O)Nc2ccc(N3CCN(c4ccc(F)cc4)CC3)c(C(=O)O)c2)c1 | inactive: 0.322% | –
CCOC(=O)c1cc(-c2ccccc2)n(CCCC(=O)Nc2cc(C)ccc2OC)c1C | inactive: 8.31% | –
Cc1ccn2c(Nc3ccc4c(c3)OCCO4)c(-c3ccc(C)s3)nc2c1 | inactive: -4.09% | –
Cc1ccc2nc(SCC(=O)Nc3ccc(C#N)cc3)[nH]c2c1 | inactive: -1.19% | –
Cc1c(C(=O)N2CCC(C)CC2)c(S(=O)(=O)N2CCN(c3cccc(Cl)c3)CC2)c(C)n1C | inactive: 0% | –
COc1ccc(OC)c(NC(=O)CCc2nc(-c3ccc(C)cc3)no2)c1 | inactive: -23.9% | –
